Source: the supplement of paper PMC5655136
Values come from read counts of a selection and are noisy.

These sequences were tested on NB7 (assay: fold depletion of shRNA, plasmid library share / infected cells without Dox share (9 days) (ratio); higher = more depleted after infection (more toxic, leaky expression from a Tet-inducible vector; NB7 is a neuroblastoma line without caspase-8)). Settings: shRNA pool: CD95L ORF + CD95L 3'UTR + Venus libraries.
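Further: shRNA barcodes quantified by deep sequencing of PCR amplicons from cellular DNA, counts expressed as percent of each subpool, ratio averaged over two biological duplicates.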

Sequence | fold depletion of shRNA
CTGATCTGCACCACCGGCAAG | 2.94
CTGCACCACCGGCAAGCTGCC | 0.562
CTGCAGTGCTTCGCCCGCTAC | 1.55
CTGCCACCCCTGAAGAAGAGA | 4.17
CTGCCATGTGAAGAGGGAGAA | 1.24
CTGCCCGACAACCACTACCTG | 1.83
CTGCCCGTGCCCTGGCCCACC | 0.57
CTGCTGCCCGACAACCACTAC | 2.76
CTGCTGGAGTTCGTGACCGCC | 0.767
CTGCTTTCTGGAGTGAAGTAT | 2.07
CTGGACGGCGACGTAAACGGC | 0.846
CTGGAGTACAACTACAACAGC | 2.14
CTGGAGTGAAGTATAAGAAGG | 0.745
CTGGAGTTCGTGACCGCCGCC | 0.77
CTGGCAGCATCTTCACTTCTA | 1
CTGGCCCACCCTCGTGACCAC | 0.87
CTGGGCCCCTCCAGGCACAGT | 0.194
CTGGGCTACGGCCTGCAGTGC | 1.24
CTGGGCTGCCATGTGAAGAGG | 2.46
CTGGGCTGTACTTTGTATATT | 0.676
CTGGGGATGTTTCAGCTCTTC | 1.81
CTGGGGCACAAGCTGGAGTAC | 0.771
CTGGTCAAAGGAGGCCACCAC | 0.673
CTGGTGAACCGCATCGAGCTG | 0.763
CTGGTGATGATGGAGGGGAAG | 0.856
CTGGTTGCCTTGGTAGGATTG | 2.37
CTGTACTTTGTATATTCCAAA | 0.377

Sequence | fold depletion of shRNA
CTGTAGCTCCTCAACTCACCT | 0.423
CTGTCCAACCTCTGTGCCCAG | 0.29
CTGTCTTTCAGATACATGGTT | 3.05
CTGTGTCTCCTTGTGATGTTT | 3.72
CTGTTCACCGGGGTGGTGCCC | 0.99
CTTAAAAATCATTGATTGTCA | 4.96
CTTACCAGTGCTGATCATTTA | 2.61
CTTAGTGCCTGAGAGTATTTA | 1.66
CTTCAAGGACGACGGCAACTA | 1.26
CTTCAAGGAGGACGGCAACAT | 1.15
CTTCAAGTCCGCCATGCCCGA | 1.29
CTTCAATTACCCATATCCCCA | 0.881
CTTCACTTCTAAATGCATATC | 0.947
CTTCCACCTACAGAAGGAGCT | 2.02
CTTCCCTGTCCAACCTCTGTG | 1.59
CTTCCGGGGTCAATCTTGCAA | 0.738
CTTCCTGACAATCAACTCTAA | 4.15
CTTCGCCCGCTACCCCGACCA | 1.27
CTTCTAAATGCATATCCTGAG | 1.17
CTTCTTACATGCATTTGAGGT | 1.34
CTTCTTCAAGGACGACGGCAA | 4.04
CTTCTTCAAGTCCGCCATGCC | 2.89
CTTGCAACAACCTGCCCCTGA | 2
CTTGCATAATAAGCTAAAGAG | 0.594
CTTGCTACCTCAAGGGGGACT | 1.63
CTTGGTAGGATTGGGCCTGGG | 0.19

Same assay, conditions: shRNA pool: CD95 ORF + CD95 3'UTR + Venus libraries

Sequence | fold depletion of shRNA
CTGATCTGCACCACCGGCAAG | 2.08
CTGATGTTGACTTGAGTAAAT | 1.71
CTGCACAGTCAATGGGGATGA | 0.818
CTGCACCACCGGCAAGCTGCC | 1.03
CTGCACCCGGACCCAGAATAC | 1.41
CTGCAGTGCTTCGCCCGCTAC | 2.26
CTGCATCATGATGGCCAATTC | 0.992
CTGCCAAGAAGGGAAGGAGTA | 1.14
CTGCCATAAGCCCTGTCCTCC | 0.624
CTGCCCGACAACCACTACCTG | 1.27
CTGCCCGTGCCCTGGCCCACC | 0.612
CTGCCTCCAAGGATGTTTAAA | 2.74
CTGCGTGCCCTGCCAAGAAGG | 1.07
CTGCTACAAATGGCAGCTTAT | 0.995
CTGCTCTCAGAGAAAGTAGCT | 2.36
CTGCTGCCCGACAACCACTAC | 1.06
CTGCTGGAGTTCGTGACCGCC | 0.969
CTGCTTCGTAATTGGCATCAA | 2.31
CTGCTTGGTTTTTTACTGGGT | 0.736
CTGGAACCACCTAAAGAACTT | 6.6
CTGGACCCTCCTACCTCTGGT | 3.42
CTGGACGGCGACGTAAACGGC | 0.742
CTGGAGTACAACTACAACAGC | 1.57
CTGGAGTTCGTGACCGCCGCC | 0.522
CTGGATTTAGGAATTGCTCTT | 4.35

Sequence | fold depletion of shRNA
CTGGCATCTAACATATGATTC | 1.39
CTGGCCCACCCTCGTGACCAC | 0.778
CTGGCTGTAAATACTGCTTGG | 1.38
CTGGGCATCTGGACCCTCCTA | 0.711
CTGGGCTACGGCCTGCAGTGC | 1.07
CTGGGGCACAAGCTGGAGTAC | 0.945
CTGGGTACATTTTATCATTTA | 0.861
CTGGTCGAGCTGGACGGCGAC | 0.966
CTGGTGAACCGCATCGAGCTG | 0.57
CTGGTTTGGAGATACTAACTG | 1.28
CTGTAAATACTGCTTGGTTTT | 0.939
CTGTAAATGTAAACTGTGAAG | 1.6
CTGTAGTATGAATGTAATCAG | 1.14
CTGTATGTGAACACTGTGACC | 3.81
CTGTCCTCCAGGTGAAAGGAA | 2.78
CTGTGAAGATAGTTATAAACT | 0.756
CTGTTACTACAGTTGAGACTC | 0.685
CTGTTCACCGGGGTGGTGCCC | 0.599
CTGTTGCTAGATTATCGTCCA | 1.22
CTTAATAGCTGGCTGTAAATA | 1.23
CTTAATAGTCCACCAAAAGGC | 8.62
CTTACGTCTGTTGCTAGATTA | 1.73
CTTACTACTATCCTACGTTTA | 0.723
CTTAGAAATTCTAGCCTGGTT | 1.27
CTTAGAAGTGGAAATAAACTG | 0.668

Sequence | fold depletion of shRNA
CTTATACATAGCAATGGTAAA | 0.857
CTTATTTTTCCCCCACCCCCG | 2.1
CTTCAAGATCCGCCACAACAT | 1.45
CTTCAAGGACGACGGCAACTA | 0.969
CTTCAAGGAGGACGGCAACAT | 1.27
CTTCAAGTCCGCCATGCCCGA | 1.15
CTTCAGAAATGAAATCCAAAG | 1.01
CTTCATCAAGAGTAAATGCAG | 1.41
CTTCATGGAAAGAAAGAAGCG | 0.819
CTTCCAAATGCAGAAGATGTA | 1.46
CTTCCATTTATGGAGGATTTT | 0.991
CTTCGCCCGCTACCCCGACCA | 0.899
CTTCGTAATTGGCATCAACTT | 1.34
CTTCTTCAAGGACGACGGCAA | 2.06
CTTCTTCAAGTCCGCCATGCC | 1
CTTCTTCTTTTGCCAATTCCA | 1.54
CTTCTTTCTCAGGCATCAAAA | 1.76
CTTCTTTTGCCAATTCCACTA | 1.01
CTTGAGTAAATATATCACCAC | 0.583
CTTGCACCAAATGTGAACATG | 1.34
CTTGCAGAGAAAATTCAGACT | 0.89
CTTGGGGTGGCTTTGTCTTCT | 0.644
CTTGGTGCTCATCTTAATGGC | 1.78
